According to PubChem BioAssay AID1347430 (National Center for Advancing Translational Sciences (NCATS), 2020):
Among all 91,000 compounds or so, about 130 (0.14%) were called active. This list was built around the results that the source calls inconclusive (neither active nor inactive); the mix of calls is not that of the screen. Calls come from the whole dose curve; as a rule, active = well fitted inhibition curve with a large enough effect; inconclusive = small, poorly fitted or top-dose-only effect; inactive = flat fitted curve, though single readings scatter. Potencies beside an inconclusive call are fits to weak or partial responses and may not hold up.

System: Uracil-DNA glycosylase
Assay: Primary qHTS assay for inhibitors of Activation Induced Cytidine Deaminase (AID): UDG Counterscreen signal; note: nearly all actives have a fitted effect of over 65% in size
Conditions: FRET deamination/UDG coupled assay, UDG read, 4 h; series mostly up to 115 µM
Potency is the fitted concentration of half-maximal effect; tags give direction and shape of the fitted curve.

| Structure (SMILES) | Potency |
| --- | --- |
| Cc1ccc(C(=O)COC(=O)c2ccccc2C(=O)c2ccc(-c3ccccc3)cc2)cc1 | inactive |
| COc1ccc(-n2c(=O)c3c4c(sc3n(Cc3ccc(C(C)(C)C)cc3)c2=O)CCC4)c(OC)c1 | inconclusive: 89.1 µM [inhibitor, partial curve, poor fit] |
| Cc1cc(C)cc(NC(=O)COCc2cc(-c3ccc4c(c3)OCO4)on2)c1 | active: 79.4 µM |
| Cc1ccc(C(=O)NCC(c2ccco2)S(=O)(=O)c2ccc(Cl)cc2)cc1C (centres undefined) | inconclusive: 89.1 µM [inhibitor, single point] |
| O=C(NNS(=O)(=O)c1ccccc1[N+](=O)[O-])c1cccs1 | inactive |
| O=C(CSc1nnnn1C1CC1)N1CCN(S(=O)(=O)c2ccc3c(c2)CCC3)CC1 | inactive |
| O=c1[nH]c(=O)n(-c2ccccc2F)c2c1C(C(F)(F)F)(C(F)(F)F)N=C(c1ccncc1)N2 | inactive |
| CCn1c2ccccc2c2cc(NC(=O)COc3cc(C)ccc3C)ccc21 | inconclusive: 70.8 µM [inhibitor, partial curve, poor fit] |
| Cc1nn(C)c(C)c1CCNC(=O)Nc1ccccc1C(F)(F)F | inconclusive: 100 µM [inhibitor, partial curve, poor fit] |
| COc1cc(Cl)c(C)cc1Nc1nc2ccccc2n2cnnc12 | inconclusive: 89.1 µM [inhibitor, partial curve, poor fit] |
| COc1ccc(OC)c(CNC(=O)c2cc3ccc4cccnc4c3[nH]2)c1 | inconclusive: 89.1 µM [inhibitor, single point] |
| CC(C)CNC(=O)CSc1nnc(COc2ccccc2Cl)o1 | inactive |
| COc1ccc(NC(C)=O)c(NC(=O)CSc2nc3ccccc3o2)c1 | inactive |
| O=C1Cc2cc(-c3csc(Nc4ccccc4F)n3)ccc2N1 | inconclusive: 89.1 µM [inhibitor, single point] |
| Cc1ccc(S(=O)(=O)N2CCN(c3nc4ccccc4nc3-n3nc(C)cc3C)CC2)cc1 | inconclusive: 89.1 µM [inhibitor, single point] |
| [O-]/[N+](=C\c1ccco1)c1ccccc1 | inconclusive: 8.91 µM [inhibitor, full curve, poor fit] |
| O=C(Nc1nnc(S(=O)(=O)N2CCCCC2)s1)c1ccc(F)cc1 | inactive |
| OC(CN1CCN(c2cccc(Cl)c2)CC1)C(c1ccccc1)c1ccccc1 (centres undefined) | inactive |
| CCNC(=O)c1c(C)oc2ncn(C)c(=O)c12 | inconclusive: 89.1 µM [inhibitor, partial curve, poor fit] |
| CCOc1ccc2cc(C3CC(c4ccco4)=NN3S(C)(=O)=O)c(Cl)nc2c1 (centres undefined) | inconclusive: 89.1 µM [inhibitor, single point] |
| Cc1ccccc1COC(=O)c1nn(Cc2ccccc2)c(=O)c2ccccc12 | inactive |
| O=C(NC1CCCCC1)c1ccnc(Cl)c1 | inactive |

| Structure (SMILES) | Potency |
| --- | --- |
| Nc1nccnc1C(=O)NCCNC(=O)c1ccco1 | inactive |
| O=C(O)c1ccc(/C=C/C(=O)c2nc3ccccc3s2)cc1 | inactive |
| CCOC(=O)c1cnc2ccc(OC)cc2c1Nc1ccc(OCc2ccccc2Cl)cc1 | inconclusive: 89.1 µM [inhibitor, single point] |
| CCN(C(=O)CSc1nc2ccccc2n1CC(=O)N(C)C1CCCCC1)c1ccccc1 | inconclusive: 100 µM [inhibitor, single point] |
| OCCNc1nc(Nc2ccc(Br)cc2)nc2nccnc12 | inactive |
| CC(=O)N1CCc2c(sc3c2c(=O)n(-c2ccccc2Cl)c(=O)n3Cc2cccc(C)c2)C1 | inconclusive: 79.4 µM [inhibitor, partial curve] |
| CCOC(=O)c1ccc(NC(=O)N2CC3CCCN3c3ccccc32)cc1 (centres undefined) | inconclusive: 79.4 µM [inhibitor, partial curve, poor fit] |
| CCOc1ccc(N2CC(C)Cn3c2nc2c3c(=O)n(Cc3c(F)cccc3Cl)c(=O)n2C)cc1 (centres undefined) | inconclusive: 89.1 µM [inhibitor, single point] |
| COC(=O)CN1C(C(=O)c2ccccc2)=C(OC(=O)c2ccc(F)cc2)c2ccccc2S1(=O)=O | inconclusive: 79.4 µM [inhibitor, partial curve] |
| COc1cccc(C(=O)/C(=C/c2ccco2)c2nc3ccccc3o2)c1 | inactive |
| COc1ccc(-n2c(Cc3ccccc3)nnc2SCc2nc(-c3cccs3)no2)cc1 | inconclusive: 56.2 µM [inhibitor, partial curve, poor fit] |
| O=c1cc(CSc2ncn[nH]2)[nH]c2ccc(F)cc12 | inconclusive: 22.4 µM [inhibitor, partial curve, poor fit] |
| Cc1ccc(C2Nc3cc(C)c(C)cc3-n3c(-c4ccccc4)c4c(=O)n(C)c(=O)n(C)c4c32)o1 (centres undefined) | inconclusive: 89.1 µM [inhibitor, single point] |
| Cc1cccc(N2CCN(C(=O)C3CCN(C(=O)c4cc5sccc5n4C)CC3)CC2)c1C | inconclusive: 89.1 µM [inhibitor, single point] |
| Cc1ccccc1S(=O)(=O)N(CC(O)CN1CCCCC1)c1ccccc1 (centres undefined) | inconclusive: 89.1 µM [inhibitor, single point] |
| Cc1c(C(=O)N2CCCC2)oc2c1-c1nn(CC(=O)NCc3ccccc3Br)cc1CC2 | inconclusive: 14.1 µM [inhibitor, full curve, poor fit] |
| CC(=O)N1CCc2c(sc3nc(SCC(C)C)n(-c4ccc(C)c(Cl)c4)c(=O)c23)C1 | active: 79.4 µM |
| Cc1nc2scc(C)n2c(=O)c1S(=O)(=O)Nc1ccc(N2CCN(S(C)(=O)=O)CC2)cc1 | inactive |
| COc1ccccc1N1CCN(C(=O)c2cnn(-c3cccc(Cl)c3)c2C2CCN(C(=O)OC(C)(C)C)CC2)CC1 | inconclusive: 70.8 µM [inhibitor, partial curve] |
| CNC(=O)N/C=C(/C#N)C(=O)OC | inactive |
| CCOc1ccc(C2=NC(c3ccncc3)=Nc3ccc(C)cc3N2)cc1OCC | inconclusive: 89.1 µM [inhibitor, partial curve, poor fit] |
| CC(Sc1ccccc1Cl)C(=O)NC1(C#N)CCSC1 (centres undefined) | inactive |
